Some of the results follow. Single values of this set are uncertain. Values with irradiation are relative to irradiated vehicle.
Each molecule was assayed on A549-Dual (assay: ISRE reporter (Lucia luciferase) activity, viability-corrected, relative to vehicle (fold change vs vehicle); higher = more activation of STING-IRF / NF-kB immune response reporter). Settings: 10 µM; irradiation: none.
For `COc1ccc(CC2c3cc(OC)c(OC)cc3CC[N+]2(C)CCC(=O)OCCCCCOC(=O)CC[N+]2(C)CCc3cc(OC)c(OC)cc3C2Cc2ccc(OC)c(OC)c2)cc1OC.O=S(=O)([O-])c1ccccc1.O=S(=O)([O-])c1ccccc1` (stereo not given) [Cisatracurium Besylate], the ISRE reporter was 0.658. For `CNCCC(Oc1cccc2ccccc12)c1cccs1` (stereo not given) [Duloxetine], the ISRE reporter was 1.18. `NC(Cc1cc(I)c(Oc2ccc(O)c(I)c2)c(I)c1)C(=O)O` (stereo not given) [Triiodothyronine] showed an ISRE reporter of 0.46. Work on `Oc1cc(O)c2c(c1)OC(c1ccc(O)c(O)c1)C(O)C2` (single isomer, unassigned; (+)) [(+)-Catechin hydrate] yielded an ISRE reporter of 0.618. For `CC1CCC2C(C)C(O)OC3OC4(C)CCC1C32OO4` (stereo not given) [Dihydroartemisinin (DHA)], the ISRE reporter was 2.87. For `COc1ccccc1OCC(O)CO` (stereo not given) [Guaifenesin], the ISRE reporter was 0.648. For `NC(=O)c1ncn(C2OC(CO)C(O)C2O)n1` (stereo not given) [Ribavirin], the ISRE reporter was 0.89. `COC(=O)N/N=C/c1c[n+]([O-])c2ccccc2[n+]1[O-]` [Carbadox] was tested, and the ISRE reporter was 0.126. `C=C(C)C1CC=C(C)CC1` [(S)-(-)-Limonene] was tested, and the ISRE reporter was 0.878. Work on `COc1cc(C(=O)NCc2ccc(OCCN(C)C)cc2)cc(OC)c1OC.Cl` [Tribenzagan Hydrochloride] yielded an ISRE reporter of 0.476.
